Among all 310,000 compounds or so, about 14,000 (4.5%) showed an effect of 50% or more. The effect is printed as a negative number. This is one part of the list.
Biological target: human ether-à-go-go-related gene (hERG) potassium channel (human, UniProt Q12809)
Assay: primary screen, population patch clamp on CHO cells stably expressing hERG
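Note: peak tail current of the secondary pulse compared with the same well before compound.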

human ether-à-go-go-related gene (hERG) potassium channel, sequence (Q12809 whole entry, looked up): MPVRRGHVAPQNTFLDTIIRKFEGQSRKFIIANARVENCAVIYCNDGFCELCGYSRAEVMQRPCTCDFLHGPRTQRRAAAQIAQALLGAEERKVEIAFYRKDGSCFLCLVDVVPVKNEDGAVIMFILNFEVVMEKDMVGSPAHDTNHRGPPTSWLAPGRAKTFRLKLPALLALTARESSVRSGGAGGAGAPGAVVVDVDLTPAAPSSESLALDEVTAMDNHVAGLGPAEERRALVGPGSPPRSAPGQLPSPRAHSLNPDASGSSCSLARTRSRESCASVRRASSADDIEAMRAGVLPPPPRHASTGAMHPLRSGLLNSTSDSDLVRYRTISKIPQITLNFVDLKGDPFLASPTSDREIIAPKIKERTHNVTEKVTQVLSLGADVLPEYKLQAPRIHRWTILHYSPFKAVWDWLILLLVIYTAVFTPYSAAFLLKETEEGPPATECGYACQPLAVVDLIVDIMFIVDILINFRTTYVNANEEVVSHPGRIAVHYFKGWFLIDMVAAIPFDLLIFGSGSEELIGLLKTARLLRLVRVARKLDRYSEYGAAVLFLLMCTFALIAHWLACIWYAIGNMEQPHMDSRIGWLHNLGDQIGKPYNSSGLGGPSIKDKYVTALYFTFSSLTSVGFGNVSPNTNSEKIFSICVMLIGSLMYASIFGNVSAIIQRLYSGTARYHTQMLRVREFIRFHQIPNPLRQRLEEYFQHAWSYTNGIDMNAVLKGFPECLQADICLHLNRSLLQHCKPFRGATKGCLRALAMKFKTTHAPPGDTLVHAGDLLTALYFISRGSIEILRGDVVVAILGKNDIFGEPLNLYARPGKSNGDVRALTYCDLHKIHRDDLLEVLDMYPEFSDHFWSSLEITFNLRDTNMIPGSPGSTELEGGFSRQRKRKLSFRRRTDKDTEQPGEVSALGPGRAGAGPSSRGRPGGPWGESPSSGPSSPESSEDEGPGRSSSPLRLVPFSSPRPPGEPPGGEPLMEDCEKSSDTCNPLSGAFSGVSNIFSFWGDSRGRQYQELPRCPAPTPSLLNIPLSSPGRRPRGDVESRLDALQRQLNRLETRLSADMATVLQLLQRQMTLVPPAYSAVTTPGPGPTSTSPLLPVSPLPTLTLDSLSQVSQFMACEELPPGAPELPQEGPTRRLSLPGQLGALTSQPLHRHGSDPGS

| SMILES | hERG current change (%, negative = inhibition) at 10uM [%] |
| --- | --- |
| COc1cc(NC(=S)NCCCN2CCOCC2)c(OC)cc1NC(=O)c1ccco1 | -3.59 |
| Cc1cc(C(=O)N/N=C/c2c(CO)cnc(C)c2O)c2ccccc2n1 | 32.1 |
| CCOC(=O)c1c(NC(=O)CCl)sc(CN(C)C)c1-c1ccccc1.Cl | -24.9 |
| CC1CCN(C(=O)C2CCC(CNc3c(N4CCCCC4)c(=O)c3=O)CC2)CC1 (stereo not drawn) | 9.39 |
| COCc1ccc(C(=O)N2CCCC(C(=O)c3ccc(SC)cc3)C2)o1 (stereo not drawn) | -41.6 |
| C[C@@]12CC[C@H]3OC(=O)C=C3C1CC[C@@]13CC(CCC12)[C@](CO)(O[C@H]1O[C@H](CO)[C@@H](O)[C@H](O)[C@H]1O)C3 (stereo partly drawn) | 20.3 |
| Cc1sc2nc(CSC(C)C(=O)N3CCOCC3)[nH]c(=O)c2c1C (stereo not drawn) | 20 |
| S=c1[nH]nc(-c2ccco2)n1/N=C/C=C/c1ccccc1 | 16.7 |
| C=CCn1c(=S)[nH]c2cc(-c3ccccc3)sc2c1=O | 23.4 |
| CC(=O)Nc1ccc(Nc2nc(C)nc3c2oc2ccccc23)cc1 | 13.4 |
| CC(C)(C)c1ccc(OCC(=O)Nc2cccc(S(=O)(=O)NC3=NCCCCC3)c2)cc1 | -18.9 |
| CN(C)c1ccc(NC(=O)CN2C(=O)CN=C(c3ccccc3)c3ccccc32)cc1 | -0.822 |
| COc1ccc(OC)c(S(=O)(=O)NC(C)c2cnn(-c3ccccn3)c2C)c1 (stereo not drawn) | 8.14 |
| CCCS(=O)(=O)C/C(N)=N/OC(=O)c1ccc(Cl)cc1 | -5.58 |
| COc1ccc(/C=C2/C(=O)NC(=S)N(C3CC3)C2=O)cc1CN1C(=O)c2ccccc2C1=O | -8.62 |
| COc1ccccc1-c1c(C)nn2c(N3CCN(c4ccccc4OC)CC3)cc(C)nc12 | 3.75 |
| CCN(CC)C(=O)CSc1nc2c(sc(=S)n2-c2ccccc2)c(=O)[nH]1 | 16 |
| CNC(=O)Oc1ccc2c(c1)[C@]1(C)CCN(C)[C@@H]1N2C | -2.51 |
| C=CCOc1c(Br)cc(CNc2ccc(NC(=O)C(C)C)c(OC)c2)cc1OCC | -9.97 |
| c1ccc(-c2nc(-c3ccccn3)nc(-c3ccccn3)n2)nc1 | -2.75 |
| O=C(NC(Cc1ccccc1)C(=O)NCc1ccccn1)c1ccco1 (stereo not drawn) | 3.3 |
| CCOc1ccc(CN2CCN(Cc3[nH]c4ccccc4c3C)CC2CCO)cc1 (stereo not drawn) | -75.8 |

| SMILES | hERG current change (%, negative = inhibition) at 10uM [%] |
| --- | --- |
| O=C(O)/C=C/c1cccnc1 | -0.782 |
| NS(=O)(=O)c1ccc(CCNC(=O)c2ccc(Cn3c(=O)[nH]c4ccccc4c3=O)cc2)cc1 | -3.26 |
| COc1ccc(-c2onc3ccc(Cl)cc23)cc1 | 19.5 |
| CCS(=O)(=O)N1CCC(C(=O)NCc2ccccn2)CC1 | -8.31 |
| COc1ccccc1C(=O)NCc1ccccc1 | 12.8 |
| CCCOc1c(Br)cc(C(N)=O)cc1OCC | -5.13 |
| COCCCNC(=S)NNC(=O)C(O)(c1ccccc1)c1ccccc1 | -2.56 |
| CC1CCCC(NC(=O)COC(=O)[C@@H](NC(=O)c2ccco2)C(C)C)C1C (stereo partly drawn) | -2.36 |
| CC(=O)c1c(C(=O)O)c2ccccc2[nH]c1=O | 11.4 |
| c1ccc2c(-c3c[nH]c4ccccc34)c3ccccc3nc2c1 | 19.3 |
| Cc1ccc(CCNC(=O)c2ccc(CS(=O)(=O)Cc3ccccc3F)o2)cc1 | -18.2 |
| Cc1ccc(C(C(=O)NC2CCCCC2)N(CC2CCCO2)C(=O)CNC(=O)c2cccs2)cc1 (stereo not drawn) | -5.61 |
| CSc1nc(O)c(C(c2ccc(C)cc2)c2c(O)nc(SC)[nH]c2=O)c(=O)[nH]1 | 6.48 |
| CC(CS(=O)(=O)c1cccc2cccnc12)N1CCCCC1 (stereo not drawn) | 11.8 |
| CCOC(=O)c1ccc(N2CCOCC2)c(NC(=O)c2c(-c3ccccc3)noc2C)c1 | -20.3 |
| O=C(O)C1CC(=O)N(CCc2ccc(F)cc2)C1 (stereo not drawn) | -8.39 |
| COc1ccc(CCNC(=O)CCOc2ccc(C)cc2)cc1OC | 12.4 |
| CCOC(=O)c1cnc2ccccc2c1Nc1cccc(C(=O)O)c1.Cl | 15.3 |
| COc1ccc(OC)c(NC(=O)CN(c2ccc(OC)c(Cl)c2)S(C)(=O)=O)c1 | -9.11 |
| O=c1[nH]c(=O)n(CCc2ccccc2)c(O)c1C=NCCN1CCNCC1 | -6.04 |
| CC(C)NC(=O)c1cc(-c2ccc3c(c2)OCO3)on1 | 7.72 |
| Cc1ccc(C(=O)Nc2ccccc2C(=O)NC(Cc2c[nH]c3ccccc23)C(=O)O)cc1 (stereo not drawn) | 15.8 |

| SMILES | hERG current change (%, negative = inhibition) at 10uM [%] |
| --- | --- |
| COc1ccc(-c2cc(=O)c3cc(OC)c(OC)cc3[nH]2)cc1 | -5.83 |
| COc1ccc(Br)cc1C(=O)NCc1cccnc1 | -19.2 |
| Cc1ccc(S(=O)(=O)N2CCN(c3ccc(C(=O)N4CCOCC4)cc3[N+](=O)[O-])CC2)cc1 | -59 |
| Cc1c(C=Nc2ccc(S(=O)(=O)N(C)C)cc2)c(O)[nH]c(=O)c1C#N | 15 |
| O=C(CC1SC(=Nc2ccc(OC(F)F)cc2)N(CCN2CCOCC2)C1=O)Nc1ccc(F)cc1F (stereo not drawn) | -82.9 |
| CC(C)c1ccc(OCc2cccc(C(=O)N/N=C/c3cccnc3)c2)cc1 | -5.29 |
| CCOc1ccccc1NC(=O)c1nc[nH]c1C(=O)Nc1ccccc1OCC | 16.2 |
| NC(=O)C1CCN(C(=O)CCC(=O)N2CCOc3ccc(Cl)cc32)CC1 | 15.7 |
| CCOC(=O)C(=O)Nc1sc(C(=O)N2CCOCC2)c(C)c1C#N | 17.1 |
| O=c1[nH]c(/C=C/c2ccc([N+](=O)[O-])cc2)c([N+](=O)[O-])c(=O)[nH]1 | 12.7 |
| Cc1ccc(CN2CCSc3ccc(C(=O)N4CCOCC4)cc32)cc1 | -23.2 |
| Cc1cccc(-c2cc3nc4c(c(N5CCC6(CC5)OCCO6)n3n2)CCCC4)c1 | 10.2 |
| CCn1cc(C(=O)NCC(C)C)c(=O)c2cc(F)c(N3CCN(C)CC3)cc21 | 3.11 |
| CCOc1ccc(NC(=O)c2ccccc2NC(=O)CN2CCN(C(C)=O)CC2)cc1 | -3.2 |
| CCSc1cc(C)nc2c(-c3ccccc3)cnn12 | 5.27 |
| CCOc1cccc(C(=O)NC(=S)Nc2ccc(N3CCN(CC)CC3)cc2)c1 | -72.1 |
| COc1ccccc1N/C=C/C(=C(C#N)C#N)N(C)C | 7.51 |
| CC1CCCN(C(=O)CSc2nnc(-c3cccs3)o2)C1 (stereo not drawn) | -17.3 |
| COCCn1c(C)cc2c(c1=O)C(c1ccco1)C(C#N)=C(N)O2 (stereo not drawn) | 12.7 |
| CCCCn1c(O)c(C(C)=Nc2ccc3c(c2)CCC3)c(=O)[nH]c1=O | 7.52 |
| NC(=O)CCC(NS(=O)(=O)c1ccc(Cl)cc1)C(=O)NCC1CCCCC1 (stereo not drawn) | 16.8 |
| CCOC(=O)N1CCN(C(=S)NC(=O)C2CCCC2)CC1 | -23.3 |

| SMILES | hERG current change (%, negative = inhibition) at 10uM [%] |
| --- | --- |
| Cc1ccc(N2C(=O)Nc3ccc(Br)cc3C2(O)C(=O)NCCCN(C)C)cc1C (stereo not drawn) | -5.79 |
| COc1ccc(OC)c2sc(NC(=O)c3ccc(S(=O)(=O)N(C)C)cc3)nc12 | 13.4 |
| O=C(Cn1nc(Cc2cccnc2)c2ccccc2c1=O)NCC1CCCO1 (stereo not drawn) | 9.7 |
| CCSc1nnc(NC(=O)CC)s1 | 6.42 |
| COc1cc(NC(=O)CSCC(=O)Nc2cccc(C(F)(F)F)c2)c(Cl)cc1Cl | -2.94 |
| CCOC(=O)C1CCN(C(=O)CSCCSCC(=O)N2CCC(C(=O)OCC)CC2)CC1 | -14.3 |
| CCCNC(=O)C(Cc1cccc(Cl)c1)NC(=O)c1ccccc1 (stereo not drawn) | 17.7 |
| CCOc1cc(/C=C2/C(=N)N3N=C(CC)SC3=NC2=O)ccc1OC(=O)c1ccco1 | -23.8 |
| Cc1nnc(SC(C)C(=O)NC2CCCc3ccccc32)n1-c1ccccc1 (stereo not drawn) | -2.12 |
| O=C(CN1C(=O)c2ccccc2S1(=O)=O)c1ccc(O)c(O)c1 | 8.63 |
| CC(C)CC(C(=O)OCC(=O)c1c(N)n(C)c(=O)n(C)c1=O)N1C(=O)C2CC=CCC2C1=O (stereo not drawn) | -7.6 |
| O=S(=O)(c1ccccc1)N1CCN(C(=S)NCCc2ccccc2)CC1 | 1.62 |
| COCc1cc(C)nc(SCC[N+](C)(C)CC(=O)Nc2cccc(C(F)(F)F)c2)c1C#N.[Cl-] | 13.5 |
| CCC(C(=O)N1CCN(c2ccccc2OC)CC1)c1ccccc1 (stereo not drawn) | 9.01 |
| COC(=O)[C@H](CCSC)NC(=O)NC1CCN(Cc2ccccc2)CC1 | -12.9 |
| COc1ccccc1NC(=O)CN1C(=O)C(C)SC(C)C1=O (stereo not drawn) | 31.8 |
| C1CN(c2nc3nonc3nc2N2C[C@H]3CC[C@H]2C3)CCS1 | 4.87 |
| CC(C)n1cc(CN2CCCC(C(=O)Nc3ccccc3Oc3cccnc3)C2)cn1 (stereo not drawn) | -42.4 |
| COCCNC(=O)c1csc(Nc2cccc3ccccc23)n1 | -35.9 |
| Cc1cc2ccccc2c(=O)n1CC(=O)NCC(=O)N1CCCC1 | 0.34 |
| CCCC1=[N+](CC(C)=O)CCn2c(C)ccc21.[Br-] | 20.1 |
